# About 14,000 (4.5%) of roughly 310,000 compounds showed an effect of 50% or more. The effect is printed as a negative number. This is one part of the list.
# Target: human ether-à-go-go-related gene (hERG) potassium channel (human, UniProt Q12809)
# Assay: primary screen, population patch clamp on CHO cells stably expressing hERG
# 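Note: peak tail current of the secondary pulse compared with the same well before compound.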
# human ether-à-go-go-related gene (hERG) potassium channel, sequence (Q12809 whole entry, looked up): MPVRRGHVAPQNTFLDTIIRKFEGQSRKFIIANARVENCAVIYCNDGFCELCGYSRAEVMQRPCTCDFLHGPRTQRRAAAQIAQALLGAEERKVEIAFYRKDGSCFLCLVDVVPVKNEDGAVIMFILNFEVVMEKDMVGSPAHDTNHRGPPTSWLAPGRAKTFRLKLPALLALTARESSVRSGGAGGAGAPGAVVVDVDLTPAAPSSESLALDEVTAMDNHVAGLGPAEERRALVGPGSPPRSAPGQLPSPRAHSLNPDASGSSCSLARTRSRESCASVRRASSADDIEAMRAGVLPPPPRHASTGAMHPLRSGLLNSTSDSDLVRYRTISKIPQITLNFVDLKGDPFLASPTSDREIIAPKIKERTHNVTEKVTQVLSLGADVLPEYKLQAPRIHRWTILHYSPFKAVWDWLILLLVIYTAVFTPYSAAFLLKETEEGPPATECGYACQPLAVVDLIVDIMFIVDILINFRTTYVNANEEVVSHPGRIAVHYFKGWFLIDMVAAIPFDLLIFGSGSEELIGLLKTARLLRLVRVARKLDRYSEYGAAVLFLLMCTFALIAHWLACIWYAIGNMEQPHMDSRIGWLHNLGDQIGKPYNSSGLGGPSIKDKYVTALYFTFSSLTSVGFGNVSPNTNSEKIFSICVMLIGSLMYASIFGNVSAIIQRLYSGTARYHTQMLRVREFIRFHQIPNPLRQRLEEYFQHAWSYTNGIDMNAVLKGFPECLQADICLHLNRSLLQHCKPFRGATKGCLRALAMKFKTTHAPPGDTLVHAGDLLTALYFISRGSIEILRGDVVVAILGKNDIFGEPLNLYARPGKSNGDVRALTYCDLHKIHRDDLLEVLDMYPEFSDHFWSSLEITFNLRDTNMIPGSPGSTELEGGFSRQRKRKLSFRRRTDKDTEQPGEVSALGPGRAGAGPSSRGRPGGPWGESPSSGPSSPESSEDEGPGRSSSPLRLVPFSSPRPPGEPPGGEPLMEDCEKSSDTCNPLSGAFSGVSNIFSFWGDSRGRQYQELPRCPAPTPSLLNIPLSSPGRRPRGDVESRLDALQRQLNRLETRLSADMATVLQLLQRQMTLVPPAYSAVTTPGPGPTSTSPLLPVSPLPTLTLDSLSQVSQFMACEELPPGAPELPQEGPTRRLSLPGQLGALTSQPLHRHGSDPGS
row,Structure (SMILES),"hERG current change (%, negative = inhibition) at 10uM"
1,Cc1cccnc1NC(=O)CN1C(=O)COc2ccc(Cl)cc21,19.2%
2,CC(=O)Nc1cccc(/C(C)=N/NC(=O)c2ccc(Cl)cc2Cl)c1,29.2%
3,COc1ccc(/C=C2\SC(=S)N(CC(=O)OCC(=O)Nc3ccc(C)cc3Cl)C2=O)cc1,12.3%
4,Cn1nccc1C(=O)NC1CCCc2c1cnn2-c1cc(F)cc(F)c1 (stereo not drawn),-45.2%
5,CCOC(=O)N1CCC(NC(=O)C2CCCN(c3nc4ccccc4o3)C2)CC1 (stereo not drawn),-28.4%
6,CC(CC(=O)NC1CCCC1)c1ccccc1 (stereo not drawn),-3.12%
7,CCOc1cccc(CN2CCC(n3nccc3NC(=O)C3CCCC3)CC2)c1,-55.3%
8,CSc1ccc(/C=C(/NC(=O)c2ccc(C)cc2)C(=O)Nc2cccc(F)c2)cc1,6.66%
9,C/C(=N/NS(=O)(=O)c1ccccc1)c1ccc(NC(=O)C(F)(F)F)cc1,1.89%
10,CCOc1cc(C(=O)N2CCN(c3ccc(C(C)=O)cc3)CC2)cc(OCC)c1OCC,-18.1%
11,O=C(N=C1SC2CS(=O)(=O)CC2N1Cc1ccc(Cl)cc1)C1CC1 (stereo not drawn),11.5%
12,CC(=O)NC1N=C(C)N(c2ccccc2)C1=O (stereo not drawn),7.13%
13,COC(=O)c1cc(S(=O)(=O)NCC2CCN(Cc3ccc(Cl)cc3)CC2)c[nH]1,-71.2%
14,COc1ccc(CCNC(=O)C2(C)CCC(=O)N2CCC(C)C)cc1OC (stereo not drawn),-8.53%
15,Cc1cc(C)c2c(c1)C(=O)/C(=C/c1ccc(C(=O)O)cc1)CC2,4.85%
16,O=C(CCn1nnc2ccccc21)N/N=C\Cc1ccccc1,-5.07%
17,CCCCOc1ccc(C(NC(=O)OCC)NC(=O)OCC)cc1,6.73%
18,Cc1ccc(CNC(=S)NCc2ccncc2)cc1,-35.9%
19,O=C(NCc1ccccc1)c1nc(S(=O)(=O)Cc2ccccc2)ncc1Cl,9.46%
20,COc1ccc(OC)c(C(c2nnnn2CCc2ccccc2)N2CCN(c3ccccc3)CC2)c1 (stereo not drawn),-16.7%
21,Cc1ccc(CN2CCN(CCC(C)C)C(CCO)C2)s1 (stereo not drawn),-29.5%
22,CCOc1ccccc1C(=O)NCCc1cnc[nH]1,18.8%
23,Cc1ccc(Cl)cc1NC(=O)COC(=O)CC1CCCCC1,12%

row,Structure (SMILES),"hERG current change (%, negative = inhibition) at 10uM"
1,Cc1nnc(SCC(=O)Nc2ncc(Cl)cc2Cl)n1Cc1ccccc1,-15.6%
2,COc1ccc(NC(=O)CC2C(=O)N(c3cccc(OC)c3)C(=O)N2C(C)C)cc1 (stereo not drawn),-9.32%
3,Cc1nnc(SCC(=O)Nc2ccc3c(c2)OCCO3)n1CC1CCCO1 (stereo not drawn),-3.78%
4,O=C(O)CCCN1C(=O)/C(=C/c2ccc(-c3nc4ccccc4s3)o2)SC1=S,23%
5,COC(=O)c1cccc(S(=O)(=O)N2CCCCC2)c1,-0.44%
6,COc1cccc(C2=CC(c3cccc(OC)c3OC(F)F)n3nnnc3N2)c1 (stereo not drawn),9.22%
7,CCOCCOC(=O)CCSc1n[nH]c(=O)[nH]c1=O,-1.23%
8,Cc1ccc2c(C)nc(N/C(N)=N/S(=O)(=O)c3ccccc3)nc2c1,21.8%
9,Cc1ccc(C(=O)Nc2ccccn2)cc1S(=O)(=O)N1CCOCC1,-5.72%
10,O=C(c1cnc(-c2ccc(Cl)cc2)s1)c1ccc(Cl)cc1Cl,5.71%
11,CCCC(=O)Nc1cc(-c2nc3ncccc3o2)ccc1Cl,10.1%
12,CCC(C)NC(=O)Cn1c(-c2ccccc2)cc(C(C)=O)c1C (stereo not drawn),8.5%
13,Cc1cc(-c2ccc(C(C)C)c(S(=O)(=O)N3CCN(c4ccccc4)CC3)c2)on1,-11.8%
14,COc1ccc(CC(=O)OCC(=O)NCc2ccccc2Cl)cc1OC,0.24%
15,O=C(c1ccc(S(=O)(=O)Nc2cccc(C(F)(F)F)c2)cc1)N1CCC1,7.99%
16,COc1cc2c(cc1OC)C(C)N(S(=O)(=O)c1ccc(C)cc1)CC2 (stereo not drawn),-15%
17,CCc1nc(SCc2cccnc2)c2c(=O)n(C)c(=O)n(C)c2n1,-10.7%
18,CCOC(=O)c1c(NC(=O)COC(=O)c2ccc(Cl)nc2)sc(C(=O)N(C)C)c1C,-11.7%
19,Cc1scc2c1N(C(=O)CN1CCN(C)CC1)c1ccccc1NC2=O,12.7%
20,COc1cc(C=O)ccc1OCCCOc1ccccc1C(=O)O,11.2%
21,CCOC(=O)C1=C(c2ccccc2)NC(=S)NC1c1ccc(Cl)c([N+](=O)[O-])c1 (stereo not drawn),9.64%
22,COc1ccc(N2CCN(C(=O)Nc3ccccc3C)CC2)cc1,-6%
23,O=C(c1ccc(N2CCCCS2(=O)=O)cc1)N1CCN(c2ccccc2F)CC1,-8.75%

row,Structure (SMILES),"hERG current change (%, negative = inhibition) at 10uM"
1,CC1CCN(c2nc3ccc(C(=O)NCCCN4CCCCC4C)cc3s2)CC1 (stereo not drawn),-59%
2,COc1ccc(S(=O)(=O)NC(C)C)cc1C(=O)N1CCOCC1,-1.28%
3,CCCCOC(=O)c1ccc(NC(=O)C(CCS(C)(=O)=O)NC(C)=O)cc1 (stereo not drawn),-22.4%
4,COc1ccc(-c2cc(NCc3ccccn3)n3ncnc3n2)cc1,-23.5%
5,C#CCNC(=O)C1=C[C@H](C)C[C@H](OCc2ccc(CO)cc2)O1,8.34%
6,CC(=O)Oc1ccc(NC(=O)Cc2ccccc2)cc1,24.9%
7,CCn1c(/C(C#N)=N/O)nc2ccccc21,-9.72%
8,CC(O)[C@H]1CNC(=O)C(=O)N1CC(C)(C)C (stereo partly drawn),-0.215%
9,O=C(N=Nc1c(O)[nH]c2ccc([N+](=O)[O-])cc12)c1ccccc1[N+](=O)[O-],-6.97%
10,O=C(COc1ccc(/C=N/NC(=O)C(=O)N2CCCCCC2)cc1)Nc1ccccc1Cl,-15.1%
11,O=C(CN(Cc1ccccc1Cl)C(=O)CN1C(=O)CSc2ccccc21)NC1CC1,-46%
12,CCOc1ccccc1CNn1cnnc1,2.62%
13,O=C(N/N=C/c1cc(Br)cs1)c1ccc2c(c1)OCCO2,10.2%
14,CNC(=O)c1c[nH]c2ccc(S(=O)(=O)Nc3ccccc3F)cc2c1=O,20.9%
15,C1=Cc2ccccc2Nc2ccccc21,14%
16,O=C(O)c1cc2cc(Oc3ccccc3)ccc2[nH]1,9.48%
17,C=CCNC(=S)Nc1ccc(Cl)cc1,4.77%
18,CC(C)CC(NC(=O)c1ccccc1)C(=O)OCC(=O)Nc1ccc(S(N)(=O)=O)cc1 (stereo not drawn),6.22%
19,CC(=O)N(C)c1ccc(N=Cc2c(O)ccc3ccccc23)cc1,-20.9%
20,CCCCOc1ccc(C(=O)Nc2ccc(S(=O)(=O)Nc3onc(C)c3C)cc2)cc1,19%
21,CCCc1c(O)nc(SCC(=O)NCCc2ccc(OC)c(OC)c2)[nH]c1=O,7.21%
22,Cc1nnc(SCC(=O)Nc2nnc(-c3ccccc3)o2)s1,10.8%
23,Cc1ccccc1CN1CCN(C(=O)c2cccc(F)c2)CC1,-6.5%

row,Structure (SMILES),"hERG current change (%, negative = inhibition) at 10uM"
1,O=C(Nc1cccs1)Nc1c(F)cc(F)cc1Br,19.6%
2,Cc1ccc(-c2c(C(=O)O)c(C(=O)O)c3n2CCC3)cc1,23%
3,Nc1ccccc1SCC(=O)N1CCc2ccccc21,-17%
4,CCc1noc(C)c1C(=O)OCC(=O)N(C)c1c(N)n(Cc2ccccc2)c(=O)[nH]c1=O,-15.5%
5,CN(c1ccccc1C(=O)Nc1ccc(F)c(F)c1)S(C)(=O)=O,12.6%
6,O=C(COC(=O)CNS(=O)(=O)c1ccc(Br)cc1Cl)NC1CCCC1,5.71%
7,Cc1ccnc(NC(=O)c2ccc3c(c2)OCO3)c1,-0.679%
8,CCC(=O)c1cn(CC(=O)Nc2cccc(C)c2C)c2ccccc12,-9.48%
9,Nc1nonc1-n1nnc(C(=O)N/N=C/c2cccc(O)c2)c1CN1CCCC1,7.84%
10,COc1cc(C(=O)NNC(=O)c2ccco2)cc(OC)c1OC,22.2%
11,C/C(=N\NC(=O)COc1cccc2ccccc12)c1cccs1,8.83%
12,COCCN(CC(=O)NCC1CCCO1)C(=O)CCC(=O)Nc1cc(C)on1 (stereo not drawn),14.5%
13,COC(=O)c1c(NC(=O)CC2Sc3ccc(C(F)(F)F)cc3NC2=O)sc(C)c1C (stereo not drawn),-4.66%
14,Cc1ccnn1Cc1cc(C(=O)O)c2ccccc2n1,38.3%
15,CC(Cc1ccccc1)NC(=O)C1(c2ccccc2)CCOCC1 (stereo not drawn),-4.37%
16,Cn1c(=O)c2c(ncn2CC(=O)N2CCN(c3ccccc3F)CC2)n(C)c1=O,-12.4%
17,Cc1cc(-n2c(SCC(=O)NCc3cccs3)nc3n[nH]c(C)c3c2=N)ccc1Cl,3.67%
18,O=C(Nc1ccc(N2CCN(C(=O)c3cccs3)CC2)cc1)c1ccc(Br)o1,-75.8%
19,CNC(=O)/C(C#N)=C/c1ccc(-c2nc3ccccc3s2)o1,4.81%
20,Cc1nc2ccc(NC(=O)Cc3ccc4c(c3)OCCO4)cc2s1,33.4%
21,O=C(COc1ccccc1O)c1cccs1,7.67%

# Source: PMC4336329 (PLoS ONE, 2015)
